Assay results from ChEMBL document CHEMBL4888484, “Replenishing the malaria drug discovery pipeline: Screening and hit evaluation of the MMV Hit Generation Library 1 (HGL1) against asexual blood stage Plasmodium falciparum ,using a nano luciferase reporter read-out” (2022).
The campaign covered roughly 4,800 compounds. About 420 (8.8%) showed an effect of 50% or more. The list shows a part of the results.

Test system: Plasmodium falciparum
Test: Confirmatory screen in NF54 nanoGlo assay, in single point, at 2uM, 72h
Format: functional, Erythrocyte
Conditions: timepoint 72 hour

SMILES	% Inhibition
CC(C)CN1C(=O)CC[C@@H](C(=O)NCCCN2CCOCC2)[C@@H]1c1cccnc1	-9%
CC(C)(C)c1cc2c(NCC3=CCOCC3)nccn2n1	-4%
c1ccc2c[n+](Cc3ccc4ccccc4n3)ccc2c1	50%
O=S(=O)(Nc1ccc(O)c2cccnc12)N1CCCC1	15%
C/C(=N\S(=O)(=O)c1ccc(Cl)cc1)Nc1cc(C(C)C)c(O)cc1C	-12%
O=C(O)c1ccc(N(C(=O)c2ccc3c(c2)OCO3)C(=O)c2ccc3c(c2)OCO3)cc1O	3%
Cc1nn(-c2ccccc2)c2c1[C@@H](c1ccc(C(F)(F)F)cc1)N(c1ccccc1)C(=O)N2	2%
Cc1c(NC(=O)C(F)(F)[C@@]2(F)OC(F)(F)C(F)(F)C2(F)F)c(=O)n(-c2ccccc2)n1C	-13%
COc1cccc(CNCCCN2CCOCC2)c1OCc1ccc(Cl)cc1Cl	-1%
CN(C(=O)CN(CCO)c1ccc(Br)cc1)C1CC1	-2%
O=C1NC(=O)c2ccc3c4c(ccc1c24)C(=O)N(c1ccccc1)C3=O	49%
COc1cccc(N2C(=O)N[C@H](C)C2=O)c1	8%
CCCCNC(=O)NCc1nc2ccccn2c1Cl	-13%
CCCOc1ccc2c(c1)OCC(C(=O)N1CCC[C@H](C(N)=O)C1)=C2	-8%
O=C(CN1CCC(c2ccc(F)c(F)c2)CC1)NCc1cccnc1	-11%
N#Cc1c(NC(=O)Nc2cn3ccccc3c2C#N)cn2ccccc12	-6%
Cc1nc2nnnn2c(C)c1C/C=C/c1ccccc1	0%
C[C@H]1[C@@H]2[C@@H](O)C([C@H](C)C(=O)NC3CCCCC3)CC[C@@]2(C)CC[C@@H]1NC(=O)CC(C)(C)C (stereo partly drawn)	35%
NC(=O)CN1CCC2(CC1)NC(c1ccc(OC(F)(F)F)cc1)=NO2	0%
COCC(=O)N(C1CCOCC1)[C@H]1CCCN(Cc2c[nH]c3ccc(OC)cc23)C1	-9%
C[C@@H](C1CC1)N(C1CC1)S(=O)(=O)c1ccc(F)cc1F	-2%
CC1Cc2cc(-c3ccc(CNC(=O)C(C)(O)C4CC4)cc3)ccc2O1 (stereo not drawn)	4%
CC[C@@H](CO)NCc1ccc(OC)cc1OC	-2%
N=C1CCCN1c1c(Cl)cccc1Cl	3%
Cc1ccc(CC(=O)N2C[C@H](c3ccccc3)C(c3ccc(Cl)cc3)=N2)cc1	6%
O=C(NCc1ccco1)c1ccc2c(c1)OCO2	-9%
O=C(NS(=O)(=O)C1CCOCC1)c1csc(-c2ccco2)n1	-12%
COc1ccc(OC)c(CNC(=O)c2ccc(Nc3ncc(-c4cccc(F)c4)cn3)cc2)c1	-6%
